We go through 1 molecule from US20220204567A1 (published 2022).

The assay has as its target wild type HA ectodomain of H3 A/Indiana/11/2011 with C-terminal Foldon trimerization domain. The assay is described as follows: ELISA.

B1: multidomain antibody MD3606 (Fc fusion)
chain: EVQLVESGGGLVQPGGSLRLSCAVSISIFDIYAMDWYRQAPGKQRDLVATSFRDGSTNYADSVKGRFTISRDNAKNTLYLQMNSLKPEDTAVYLCHVSLYRDPLGVAGGMGVYWGKGALVTVSSGGGGSGGGGSEVQLVESGGGLVQAGGSLKLSCAASGRTYAMGWFRQAPGKEREFVAHINALGTRTYYSDSVKGRFTISRDNAKNTEYLEMNNLKPEDTAVYYCTAQGQWRAAPVAVAAEYEFWGQGTQVTVSSGGGGSGGGGSEVQLVESGGGLVQPGGSLRLSCAATGFTLENKAIGWFRQTPGSEREGVLCISKSGSWTYYTDSMRGRFTISRDNAENTVYLQMDSLKPEDTAVYYCATTTAGGGLCWDGTTFSRLASSWGQGTQVTVSSGGGGSGGGGSEVQLVESGGGLVQPGGSLKLSCAASGFTFSTSWMYWLRQAPGKGLEWVSVINTDGGTYYADSVKDRFTISRDNAKDTLYLQMSSLKSEDTAVYYCAKDWGGPEPTRGQGTQVTVSS[human IgG1 Fc left out]
B1 displayed a 50% effective concentration (EC50) of 0.8 nM.
